{
  "source": "PubChem BioAssay AID686978",
  "about": "(National Center for Advancing Translational Sciences (NCATS), 2013)",
  "note": "Several values for one entry are separate records, joined by “and”; a condition that tells them apart may be missing. Identical values can stand only once. The whole screen tested about 420,000 compounds, of which about 64,000 (15%) were called active. Inconclusive means that the source gave no clear call. Such entries were picked first, then a sample of the others. Calls come from the whole dose curve; as a rule, active = well fitted inhibition curve with a large enough effect; inconclusive = small, poorly fitted or top-dose-only effect; inactive = flat fitted curve, though single readings scatter. A potency beside an inconclusive call is a rough fit, not a confirmed value. % is set by controls: 0 for no effect and ±100 for the full control effect; potency is the fitted concentration of half-maximal effect; tags give direction and shape of the fitted curve.",
  "data": [
    {"experiment": "qHTS for Inhibitors of human tyrosyl-DNA phosphodiesterase 1 (TDP1): qHTS in cells in absence of CPT; note: nearly all actives have a fitted effect of over 55% in size", "settings": "DT40 Tdp1-/- hTDP1 cells, no CPT, ATP luminescence, 48 h; activity change, negative = growth inhibition: at 46.2 µM (top of the series) unless noted", "how_it_was_run": "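Growth of hTDP1-complemented DT40 Tdp1-knockout cells is measured by ATP luminescence after at least 48 hr compound exposure at 37 °C, with DMSO substituting for the 20 nM CPT used in the parallel screen.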", "values": [
      {"molecule": "C[C@H](NC(=O)[C@@H]1CCCN1C(=O)[C@@H]1CCCN1C(=O)OC(C)(C)C)c1ccccc1", "Potency": "inactive"},
      {"molecule": "CC(CN1CCCCC1)C(=O)NNC(=O)C12CC3CC(CC(C3)C1)C2", "note": "(stereo not given)", "Potency": "inactive"},
      {"molecule": "COc1ccc(NC(=O)C2(C)CCN2Cc2ccc(OC(C)C)cc2)cc1OC", "note": "(stereo not given)", "Potency": "inconclusive: 16.4 µM [inhibitor, partial curve, poor fit]"},
      {"molecule": "Cc1ccc(N(CC(=O)Nc2ccc(C)cc2C)S(=O)(=O)N2CCCC2)cc1", "Potency": "inconclusive: 29.1 µM [inhibitor, single point]"},
      {"molecule": "CN(C)c1ccc(N=C/C=C2/N(C)c3ccccc3C2(C)C)cc1", "Potency": "active: 5.17 µM"},
      {"molecule": "COC(=O)c1cc(C(=O)N(Cc2ccccc2)c2ccccn2)cc([N+](=O)[O-])c1", "Potency": "inactive"},
      {"molecule": "O=C(CSc1nnc(-c2ccccc2F)o1)N1CCc2ccccc21", "Potency": "inconclusive: 29.1 µM [inhibitor, single point]"},
      {"molecule": "COc1cc(/C=C2\\C(=O)N(c3cccc(C(=O)O)c3)N=C2C)ccc1OCc1ccccc1", "Potency": "inconclusive: 20.6 µM [inhibitor, partial curve]"},
      {"molecule": "C=CCNC(=O)/C(C#N)=C/c1cn(-c2ccccc2)nc1-c1cccs1", "Potency": "inconclusive: 20.6 µM [inhibitor, partial curve]"},
      {"molecule": "O=C(Cc1ccc(Cl)cc1)NCC(c1cccs1)S(=O)(=O)c1ccc(Cl)cc1", "note": "(stereo not given)", "Potency": "inconclusive: 18.4 µM [inhibitor, single point]"},
      {"molecule": "CCN(CC)S(=O)(=O)c1ccc(C)c(NC(=O)CNCc2ccccc2OC)c1", "Potency": "inconclusive: 18.4 µM [inhibitor, single point]"},
      {"molecule": "CN(C(=O)COC(=O)c1ccc(Cl)c(N)c1)c1ccccc1", "Potency": "inactive"},
      {"molecule": "CCOc1cc(C=O)cc(Br)c1OCC(N)=O", "Potency": "active: 5.17 µM"},
      {"molecule": "Cc1ccc(NC(=O)Cn2nc(C(F)(F)F)c3c2CCC3)cc1", "Potency": "inconclusive: 20.6 µM [inhibitor, partial curve]"},
      {"molecule": "Cc1cccc(C(=O)Nc2nnc(SCc3cc(=O)n4cccc(C)c4n3)s2)c1", "Potency": "inactive"},
      {"molecule": "CCNC(=O)C1(C)CCCN(C(=O)c2ccc3sccc3c2)C1", "note": "(stereo not given)", "Potency": "inactive"},
      {"molecule": "Cc1ccc(C(=O)Nc2cccc(N3C(=O)C4CCC(C)CC4C3=O)c2)cc1", "note": "(stereo not given)", "Potency": "inactive"},
      {"molecule": "C#CC(=O)CCC1CCCN1C(=O)OC(C)(C)C", "note": "(stereo not given)", "Potency": "inconclusive: 18.4 µM [inhibitor, single point]"},
      {"molecule": "O=C1OCC/C1=C\\c1ccc2c(c1)OCO2", "Potency": "inactive"},
      {"molecule": "O=[N+]([O-])c1ccc(Nc2ccc(F)cc2)nc1", "activity change, negative = growth inhibition": "inconclusive: -30.6% [inhibitor]"},
      {"molecule": "CN(Cc1ccccc1)C(=O)C1CCN(Cc2cc3ccccc3n2Cc2ccccc2)CC1", "Potency": "inconclusive: 23.1 µM [inhibitor, single point]"},
      {"molecule": "COc1ccc(O)c(/C=N/NC(=O)CCC(=O)Nc2ccc(C)cc2)c1", "Potency": "active: 20.6 µM"},
      {"molecule": "COc1ccc(C(=O)N/N=C/c2ccc(OC)c(CN3CCc4cc(OC)c(OC)cc4C3C)c2)cc1", "note": "(stereo not given)", "Potency": "inconclusive: 29.1 µM [inhibitor, single point]"},
      {"molecule": "COc1ccccc1CNc1nc(-c2ccoc2)nc2ccccc12", "Potency": "active: 25.9 µM"},
      {"molecule": "C#Cc1cccc(Nc2ncnc3cc(OCCOC)c(OCCOC)cc23)c1", "Potency": "active: 13.3 µM"},
      {"molecule": "CC(C)Oc1ccc(C(=O)OC(C)C(=O)NC2CCCCC2C)cc1", "note": "(stereo not given)", "Potency": "inconclusive: 29.1 µM [inhibitor, single point]"},
      {"molecule": "C[C@H]1CN([C@@H](C)CO)C(=O)c2cc(/C=C/c3ccccc3)cnc2O[C@H]1CN(C)C(=O)c1cccc(F)c1", "Potency": "active: 23.1 µM"},
      {"molecule": "Cn1nc(C(=O)Nc2ccc(S(=O)(=O)N3CCOCC3)cc2)c2ccccc2c1=O", "Potency": "inconclusive: 8.2 µM [inhibitor, partial curve]"},
      {"molecule": "O[C@H]1C[C@H](c2ccc(Cl)cc2)N(Cc2cccs2)C[C@@H]1n1cc(C2CC2)nn1", "Potency": "active: 14.6 µM"},
      {"molecule": "CC(=O)Nc1cc(-c2cccc(CO)c2)cn2c(-c3ccc(F)cc3)cnc12", "Potency": "inconclusive: 29.1 µM [inhibitor, single point]"},
      {"molecule": "Cc1cc(Cl)ccc1OCC(=O)Nc1ccccc1NS(=O)(=O)c1cccs1", "activity change, negative = growth inhibition": "inconclusive: -31.8% [inhibitor]"},
      {"molecule": "Cc1c2ccccc2cc(Cc2ccccc2)[n+]1C", "Potency": "active: 13 µM"},
      {"molecule": "COc1cccc(CN2CC(C(=O)NCCc3cn4cccnc4n3)CCC2=O)c1", "note": "(stereo not given)", "Potency": "inactive"},
      {"molecule": "COc1ccc(Cl)cc1NC(=O)Nc1ccccc1C(N)=O", "Potency": "active: 8.2 µM"},
      {"molecule": "C=CCn1c(SCCC)nc2sc3c(c2c1=O)CCc1ccccc1-3", "Potency": "inconclusive: 10.3 µM [inhibitor, partial curve, poor fit]"},
      {"molecule": "COc1cccc(C(=O)NCC2Cc3cccc(-c4cccnc4)c3O2)c1", "note": "(stereo not given)", "Potency": "inconclusive: 20.6 µM [inhibitor, single point]"},
      {"molecule": "O=C1CCN(Cc2ccc([N+](=O)[O-])cc2)CCN1[C@H](CO)Cc1ccccc1", "Potency": "inconclusive: 17.8 µM [inhibitor, single point]"},
      {"molecule": "CCc1ccc(NC(=O)C(NS(=O)(=O)c2cccs2)C(C)C)cc1", "note": "(stereo not given)", "Potency": "inconclusive: 20.6 µM [inhibitor, single point]"},
      {"molecule": "O=C(CCc1ccccc1)Nc1cccc(S(=O)(=O)N2CCOCC2)c1", "Potency": "inconclusive: 20.6 µM [inhibitor, single point]"},
      {"molecule": "CC(NC(=O)Cc1ccc(S(=O)(=O)N2CCOCC2)s1)c1ccc(Cl)cc1Cl", "note": "(stereo not given)", "Potency": "inconclusive: 29.1 µM [inhibitor, single point]"},
      {"molecule": "Cc1ccc(-c2csc3nc[nH]c(=S)c23)cc1", "Potency": "active: 5.17 µM"},
      {"molecule": "S=C(NCc1ccccc1)N1CCCCC1", "Potency": "inactive"},
      {"molecule": "COc1cc2c(cc1OC)C(/C=C/c1ccco1)=NCC2", "Potency": "active: 13 µM"},
      {"molecule": "Cc1ccc(S(=O)(=O)NC2=C(N3CCN(c4ccccc4F)CC3)C(=O)c3ccccc3C2=O)cc1", "Potency": "inconclusive: 29.1 µM [inhibitor, single point] and inconclusive: 20.6 µM [inhibitor, single point]"},
      {"molecule": "CN(C)C=NC(=O)c1[nH]c2ccc(Cl)cc2c1-c1ccccc1", "Potency": "inconclusive: 23.1 µM [inhibitor, single point]"},
      {"molecule": "CCOC(=O)N1CCN(C(=O)C2CCC(CNS(=O)(=O)c3ccccc3)CC2)CC1", "note": "(stereo not given)", "Potency": "inconclusive: 18.4 µM [inhibitor, single point]"},
      {"molecule": "Nc1nc(SCC(=O)Nc2ccccc2C(F)(F)F)[nH]c(=O)c1-c1ccccc1", "Potency": "inactive"},
      {"molecule": "CNC(=S)N1N=C(c2ccc(C)cc2)CC1c1ccc(Br)cc1", "note": "(stereo not given)", "Potency": "active: 7.31 µM"},
      {"molecule": "CC1CCCCC1NC(=O)CCN1C(=O)C2C3C=CC(C3)C2C1=O", "note": "(stereo not given)", "Potency": "inactive"},
      {"molecule": "CCc1noc(C)c1C(=O)N1CCCC(N2CCN(c3cccc(Cl)c3)CC2)C1", "note": "(stereo not given)", "Potency": "inconclusive: 20.6 µM [inhibitor, partial curve]"},
      {"molecule": "COc1nc(NCCc2ccc(OC)c(OC)c2)nc(Nc2ccccc2)n1", "Potency": "inconclusive: 16.4 µM [inhibitor, single point]"},
      {"molecule": "COc1ccccc1C(=O)NCC(=O)N1CC=C(c2ccccc2)CC1", "Potency": "inconclusive: 20.6 µM [inhibitor, partial curve]"},
      {"molecule": "CC(Oc1cccc(Cl)c1)C(=O)Nc1ccc(S(=O)(=O)NC2=NCCCCC2)cc1", "note": "(stereo not given)", "Potency": "inconclusive: 20.6 µM [inhibitor, single point]"},
      {"molecule": "COC(=O)C1=NN(C(=O)c2ccc(Cl)cc2)C(O)(c2ccccc2)C1", "note": "(stereo not given)", "Potency": "inactive"},
      {"molecule": "CCC(=O)Nc1ccc(NC(=O)CSc2nc3cc4c(cc3cc2C)CCC4)cc1", "Potency": "inconclusive: 23.1 µM [inhibitor, single point]"},
      {"molecule": "Cc1ccc(NS(=O)(=O)c2cc(C(=O)Nc3cccnc3)ccc2C)cc1", "activity change, negative = growth inhibition": "inconclusive: -30% [inhibitor]"},
      {"molecule": "Cn1c(=O)c2c(-c3ccccc3)n3c(c2n(C)c1=O)C(c1ccccc1[N+](=O)[O-])Nc1ccccc1-3", "note": "(stereo not given)", "Potency": "inactive"},
      {"molecule": "CCCc1[nH]nc2c1C(c1ccsc1)C(C#N)=C(N)O2", "note": "(stereo not given)", "Potency": "inconclusive: 29.1 µM [inhibitor, single point]"},
      {"molecule": "COc1ccccc1CN=c1c([N+](=O)[O-])nn(-c2ccc3c(c2)OCCO3)n1O", "Potency": "inconclusive: 29.1 µM [inhibitor, single point]"},
      {"molecule": "Cc1ccc(CNc2cc(-c3nn4c(C)nnc4s3)ccc2C)s1", "Potency": "inconclusive: 29.1 µM [inhibitor, single point]"},
      {"molecule": "CCC(=O)NC(c1cccs1)c1ccc2cccnc2c1O", "note": "(stereo not given)", "Potency": "active: 4.61 µM"},
      {"molecule": "Cc1ccc(S(=O)(=O)N2CCN(C(=O)COc3ccc(C)nc3[N+](=O)[O-])CC2)c(C)c1", "Potency": "inconclusive: 29.1 µM [inhibitor, single point]"},
      {"molecule": "O=C(CCCn1c(=S)[nH]c2cc3c(cc2c1=O)OCO3)NCc1cccc(Cl)c1", "Potency": "inconclusive: 23.1 µM [inhibitor, single point]"},
      {"molecule": "CC(C)C[C@H]1COc2cc(N3CCN(Cc4ccccc4F)CC3)ccc2S(=O)(=O)N1", "Potency": "inconclusive: 29.1 µM [inhibitor, single point]"},
      {"molecule": "COc1ccc(-c2nnc3n2CCCCC3)cc1OC", "Potency": "inactive"},
      {"molecule": "O=C(COc1ccc(Cl)cc1[N+](=O)[O-])NC1CCCCC1", "Potency": "inconclusive: 29.1 µM [inhibitor, single point]"},
      {"molecule": "O=C1C2C3C=CC(CC3)C2C(=O)N1c1nccs1", "note": "(stereo not given)", "Potency": "inactive"},
      {"molecule": "COc1ccccc1CNc1ncnc2ccc(-c3ccoc3)cc12", "Potency": "inconclusive: 29.1 µM [inhibitor, single point]"},
      {"molecule": "C[C@H](CO)N1C[C@H](C)[C@@H](CN(C)C(=O)Nc2ccc(F)cc2)Oc2ncc(-c3ccc(F)cc3)cc2C1=O", "Potency": "inconclusive: 29.1 µM [inhibitor, single point]"},
      {"molecule": "O=C(N/N=C/c1ccc2c(c1)OCO2)c1cc(-c2ccc(F)cc2)nc2ccccc12", "Potency": "active: 9.2 µM"}
    ]}
  ]
}
